Measurements: the supplement of paper PMC11417369
The list shows a part of the results.

Each sequence was assayed on PfHDP1 homeodomain (GST-tagged) (assay: gcPBM binding intensity (ln(normalized median fluorescence intensity)); higher = stronger DNA binding).
Outline: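 DNA-binding domains from P. falciparum, fused to GST and produced in E. coli, were put on an Agilent 4 × 180k double-stranded probe array for 1 h in 1× PBS holding 1% milk, 0.2 mg/ml BSA, 0.5% salmon testes DNA and 0.03% Triton X-100. Probes were primer-extended, 36 bp long and drawn from intergenic genomic regions, with negative controls included. After Alexa488 anti-GST antibody detection and a 488 nm scan, binding intensity was set as the highest Masliner-normalised natural-log median intensity across replicate spots of either probe orientation.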

| Sequence | gcPBM binding intensity (ln) |
| --- | --- |
| ATATAGTATTAATTTGCATGTCATGTATTAGGTCGA [TGCATGCA_site540] | 6.58 |
| CTTTTTTTAATATGCACACATATATTTTATATATTA [CACACA_site2077] | 10.3 |
| TGTAAGTTGATATAATGTACATGTTTGATTTTTTTT [XGTACX_site7687] | 6.34 |
| TTTTATATTTTTTGTGGTACATTTAGAGAACCAAAA [XGTACX_site1695] | 6.04 |
| TTTGAATTTTTTAACACACACATGTCTGGATATATA [CACACA_site1645] | 6.74 |
| GAAAAAAAAAAAAAAAGTACATGTCATAAATTGTAT [XGTACX_site1461] | 6.32 |
| TTTTCCTTAACACACGTTTATATAAAAAATTAAAAT [XGTACX_negctrl_site115] | 6.7 |
| ATCCATCTTTTATATAGTACTTTATAATATATATAT [XGTACX_site8064] | 7.83 |
| CAATGTTAATATAATACACACAATATGTATTTGTCT [CACACA_site1162] | 6.8 |
| TTGTTAATATATATATGTACTTATTTATTTATTTAT [XGTACX_site2274] | 6.39 |
| AGTATTTCCATATGTACATGCAAAAGGAAAGATATA [TGCATGCA_site850] | 6.66 |
| TATTTTTCCCTATGCACACACACCGTATATATAATA [CACACA_site4758] | 10.1 |
| TGTCCAATTTTTTATCGTACATAATATATAAATAAA [XGTACX_site1705] | 6.89 |
| AAATATAAAAATAGCACACATATATACATATATATA [CACACA_site56] | 7.22 |
| TATAAAAATGTGTATGTACACACTTTATTTTTAATA [CACACA_site2532] | 6.38 |
| AGAAACGTAAGTTATACACACATGTCAAAAGAAAAA [CACACA_site312] | 6.7 |
| AAATTAAAATATATATGTACATATATATATATATAT [XGTACX_site7844] | 9.47 |
| GAGCTTTGGATGAAAGCATGCGATGAATGGATAAAA [TGCATGCA_site786] | 6.91 |
| ATTTATTTCAATAAACTTCTTTTCTTTAACAATTAC [CACACA_negctrl_site1222] | 6.05 |

| Sequence | gcPBM binding intensity (ln) |
| --- | --- |
| CTGTAAAATGTGATGGTGCATATTAATTTAGTTGTA | 9.96 |
| AACACAAATAAGTATTTGGATTATATTACATTTATA [CACACA_negctrl_site465] | 6.39 |
| ATAAAAATAAATAAATGTACATATATATATATATAT [XGTACX_site1277] | 9.28 |
| TAAATTAAAAAAAAAAACAAAAAAAAAGCAACAAAA [CACACA_negctrl_site1318] | 6.62 |
| TAAATAGGAAAACCTATACACACTTTAAAAAAAATA [CACACA_site1621] | 6.11 |
| TTGAATATTTAAAAACGTACATAAAATTATTTGATT [XGTACX_site5422] | 6.14 |
| TCAAATAGAAAATAAAGTACTTAATTTTTAGGAACA [XGTACX_site1446] | 6.78 |
| ATATATATATTTATAGTGCATTTATATTAAAATATC [GTGCAC_site9818] | 8.5 |
| ATATATATTTATATATGTACATATTAATATATATAT [XGTACX_site1144] | 7.79 |
| ATATTTATATTTTTTTGTACATATATAATTTTATAA [XGTACX_site4151] | 6.6 |
| TTATAGTATTTATAATGTACAAATATATTTTATTTT [XGTACX_site5015] | 6.29 |
| CCAAAGGGGGTATACTGTACATATAGTGGTTATATA [XGTACX_site1515] | 7.11 |
| TGAAAATTTTAATGAGGAAATAAAATAAATATAATA [GTGCAC_negctrl_site159] | 6.34 |
| ATAGGCACTTTTTGCACACGTATGAATAACAAAATA [CACACA_site5069] | 10.4 |
| TTTATTAATAGACACACACACACACGCAAAATAAAA [CACACA_site6255] | 7.16 |
| AATATTTTAAGGCACACACACAAAAAAAAAAAAAAA [CACACA_site2890] | 6.38 |
| ATTTAAGGGGTGTATGCACACGACTATTCCGTATGA [CACACA_site4738] | 9.3 |
| TAATTTAGTATCTTTACATGCGGGCATTATGTCATA [TGCATGCA_site167] | 6.05 |
| CCATTTATTATTTGGGGTACATTTAATTAATATTTT [XGTACX_site5940] | 7.08 |

| Sequence | gcPBM binding intensity (ln) |
| --- | --- |
| CTTTATTATAAGATTACACACATGTGTTATAATTTA [CACACA_site3169] | 6.57 |
| TTGACCTTAAGAAGGTTGCACTAATCATTCAAAGTT | 7.4 |
| AATTTAATATAATGCACACATAAAAAAAAAAAAAAA [CACACA_site123] | 10.5 |
| TTTTAAACAAAAAATTGTACAATTAGTGTATAATCC [XGTACX_site778] | 7.21 |
| AAAAAAAAAAGACACACACACAAATACAAATACATA [CACACA_site6334] | 6.81 |
| AAAGGAAATTAAAATTGATTACATATATAAAAAAAC [XGTACX_negctrl_site196] | 6.48 |
| ACTTGTTTTCAATGTAAAATACAATTTTCATTTATT [CACACA_negctrl_site435] | 6.22 |
| AAGTATTACAACCACACACACACCTATATATTATAT [CACACA_site4158] | 6.89 |
| AATGAAAAATGTATCGTTAAAGGGTATCTTAAGGAT [XGTACX_negctrl_site222] | 6.31 |
| CCAAAGAAATATAATACACACAAGAATATATTGGAT [CACACA_site6018] | 6.99 |
| GAGAAATGGGGACACACACACATATTATAGATATAT [CACACA_site6829] | 6.52 |
| TAAGGATAAAATAAATGTACATATGTAAAATTATTA [XGTACX_site4170] | 6.18 |
| TTGTTTGATATCTTTGTCACGAAAAAAATATATATA [GTGCAC_negctrl_site54] | 6.47 |
| TTTTTAATAATCTCTCAAAATGTTCTTATATTTTAC [CACACA_negctrl_site1691] | 5.92 |
| TAATCTCATAAAACCGCACACACATAAAATTTGCAT [CACACA_site3890] | 6.87 |
| TTAACAGTAAAACACAGTACATATATACTTAAAACA [XGTACX_site1930] | 6.57 |
| ATTTTTTTCCTAATGGTGCGAATAAATATCCATACC | 7.01 |
| TTTTTTTATTATACTAGTACATATATATACAGCACA [XGTACX_site3464] | 6.86 |
| AAAAAAAAAAAAGGAACACACAAGTAACAATAAATT [CACACA_site2481] | 6.41 |
